Results from PMC4336329 (PLoS ONE, 2015).
The campaign covered roughly 310,000 compounds. About 14,000 (4.5%) showed an effect of 50% or more. The effect is printed as a negative number. Some of the results follow.

Target: human ether-à-go-go-related gene (hERG) potassium channel (human, UniProt Q12809)
Experiment: primary screen, population patch clamp on CHO cells stably expressing hERG
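Further: peak tail current of the secondary pulse compared with the same well before compound.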

Sequence of human ether-à-go-go-related gene (hERG) potassium channel (Q12809 whole entry, looked up): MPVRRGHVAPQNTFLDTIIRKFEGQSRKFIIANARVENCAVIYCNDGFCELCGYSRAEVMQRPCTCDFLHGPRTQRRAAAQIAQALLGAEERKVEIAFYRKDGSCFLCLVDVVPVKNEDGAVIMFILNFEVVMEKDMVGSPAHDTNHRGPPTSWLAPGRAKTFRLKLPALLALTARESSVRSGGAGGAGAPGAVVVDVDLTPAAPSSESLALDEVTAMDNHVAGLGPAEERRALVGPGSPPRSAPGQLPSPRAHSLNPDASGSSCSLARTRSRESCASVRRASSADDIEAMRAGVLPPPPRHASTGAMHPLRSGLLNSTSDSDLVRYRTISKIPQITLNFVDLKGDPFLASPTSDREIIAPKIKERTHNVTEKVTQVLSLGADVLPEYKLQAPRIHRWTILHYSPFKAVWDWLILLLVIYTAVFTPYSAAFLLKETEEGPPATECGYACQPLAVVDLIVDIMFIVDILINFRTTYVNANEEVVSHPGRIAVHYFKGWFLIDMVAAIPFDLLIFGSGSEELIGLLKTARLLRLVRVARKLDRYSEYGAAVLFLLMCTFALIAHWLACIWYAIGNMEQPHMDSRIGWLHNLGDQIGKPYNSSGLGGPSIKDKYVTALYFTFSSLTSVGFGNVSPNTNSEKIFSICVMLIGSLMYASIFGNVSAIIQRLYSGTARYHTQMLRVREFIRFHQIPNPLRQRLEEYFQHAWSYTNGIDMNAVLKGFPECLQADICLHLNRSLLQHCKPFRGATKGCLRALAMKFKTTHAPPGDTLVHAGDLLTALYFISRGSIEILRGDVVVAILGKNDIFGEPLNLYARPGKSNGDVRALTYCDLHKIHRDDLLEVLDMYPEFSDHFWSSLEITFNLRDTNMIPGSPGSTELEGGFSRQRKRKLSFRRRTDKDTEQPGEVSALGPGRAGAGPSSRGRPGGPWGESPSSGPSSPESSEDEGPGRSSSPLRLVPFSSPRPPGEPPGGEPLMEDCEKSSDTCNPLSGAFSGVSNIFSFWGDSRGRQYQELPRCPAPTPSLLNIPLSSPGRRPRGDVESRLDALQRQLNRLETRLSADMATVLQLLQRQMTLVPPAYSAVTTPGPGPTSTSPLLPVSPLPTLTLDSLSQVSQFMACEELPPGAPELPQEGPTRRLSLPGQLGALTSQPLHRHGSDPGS

Point of comparison: `Cc1ccc(NC(=O)C2CCN(S(=O)(=O)c3c(C)nn(C)c3C)CC2)c(Cl)c1`, “hERG current change (%, negative = inhibition) at 10uM” value -20%. Against it:
- CCOc1ccc(C(=O)NC2CC(=O)N(c3ccc4c(c3)OCCO4)C2)cc1 (centres unmarked) — higher, -10.1%
- NC(=O)c1ccsc1NC(=O)COC(=O)c1ccccc1NCc1ccco1 — higher, -2.52%
- CCN(CC)CCC(=O)Nc1ccc2c(c1)N(C(=O)CN(CC)CC)c1ccccc1CC2.Cl.O — higher, -8.21%
- CC(=O)OCCN(CCCn1c(-c2ccncc2)nc2ccccc21)c1nc(CN2CCCCC2)cs1 — lower, -58.5%
- CSc1ccccc1NC(=O)c1cc(C(C)C)on1 — higher, 16.7%
- CCCCNC(=O)/C=C/c1ccc(S(=O)(=O)Nc2ccc(OC)cc2)cc1 — higher, 3.52%
- CN1CCN(NC(=O)c2ccc(S(=O)(=O)N3CC4(C)CC3CC(C)(C)C4)cc2)CC1.Cl (centres unmarked) — higher, -2.07%
- O=C(CNc1ccc(C(F)(F)F)cc1[N+](=O)[O-])OCC(=O)c1ccccc1 — lower, -25.8%
- COc1ccc2[nH]c(C)c(CCNC(=S)Nc3cccc(C)c3C)c2c1 — higher, 15.9%
- COc1ccccc1N1CCN(C2CCCN(C(=O)CCC(=O)N(C)C)C2)CC1 (centres unmarked) — higher, -5.57%
- COc1ccc(-n2nc(C(=O)NCC(=O)NCCN(C)C)c3ccccc3c2=O)c(OC)c1 — higher, 15.9%
- O=C(CSc1ccc2nnc(-c3ccccc3)n2n1)NCc1ccc2c(c1)OCO2 — lower, -80.3%
- CCCc1cc(=O)n2[nH]c(NCc3ccccc3Cl)nc2n1 — higher, 4.53%
- Cc1ccc(OCC(=O)NCCCNC(=O)c2ccc(C)nc2)cc1 — higher, 23.7%
- COc1ccc(CNCc2cc3c(cc2[N+](=O)[O-])OCO3)cc1.O=C(O)C(=O)O — lower, -40.8%
- CC(C)C1NC(=S)N(C2CCCCC2)C1=O (centres unmarked) — higher, -18%
- CC(C)N(C(=S)NC1CC2CCC1C2)c1ccccc1 (centres unmarked) — higher, 7.43%
- COc1ccc(C(C(=O)NCC2CCCO2)N(C(=O)CNC(=O)c2cccs2)c2ccc(NC(C)=O)cc2)cc1OC (centres unmarked) — higher, 22.1%
- OCCN1CCN(c2nc(-c3ccccc3)nc3c2oc2ccccc23)CC1 — higher, -6.34%
- CCOC(=O)N1CCC(=NNc2ccnc3cc(Cl)ccc23)CC1 — lower, -32.5%
- Cc1ccc(C(C(=O)NC2CCCCC2)N(Cc2ccco2)C(=O)Cc2c[nH]c3ccccc23)o1 (centres unmarked) — lower, -40.5%
- CCc1ccccc1NC(=O)CCS(=O)(=O)c1ccc(OC)cc1 — higher, 7.48%
- CC1CCCCN1CC(=O)NCc1ccc2c(c1)OCO2 (centres unmarked) — higher, -18.1%
- Cc1cc(C(=O)CSc2nnc(-c3ccc(F)cc3)o2)c(C)n1CC1CCCO1 (centres unmarked) — higher, -7.13%
- CCOc1ccc(NC(=O)c2ccc(CSc3nnnn3C)cc2)cc1 — higher, -3.27%
- O=Cc1c(C(=O)O)n(Cc2ccc(Cl)cc2)c2ccccc12 — higher, 13.6%
- O=C1NC[C@H](c2ccccc2)N(CC2CCCCC2)C1=O — higher, 4.59%
- COc1ccc(N2C(=O)CC(NNc3ncc(Cl)cc3Cl)C2=O)cc1 (centres unmarked) — lower, -31.9%
- Cc1ccc(CSCCNC(=O)/C=C/c2ccccc2Cl)cc1 — higher, 7.62%
- O=C1CS/C(=N/N=C/c2c[nH]c3ccccc23)N1 — higher, -13.2%
- Cc1cc(C)c(C#N)c(SCC(=O)c2ccccc2)n1 — higher, -7.39%
- CCCC(=O)n1nc(-c2ccco2)nc1SCc1ccccc1 — higher, 0.232%
- Cn1c(=O)[nH]c(=O)c2c1nc(CN1CCN(c3ccccc3F)CC1)n2CC(N)=O — higher, -4.28%
- CC(C)(C)c1ccc(-c2nnc(SCC(=O)NC3CC3)o2)cc1 — higher, 2.04%
- Cn1c(=O)c2c(ncn2Cc2nnc(N)s2)n(C)c1=O — higher, 13.6%
- COc1ccc(S(=O)(=O)N2CCN(C(=O)c3cc(C)on3)CC2)cc1 — higher, -4.9%
- C=CCS(=O)(=O)N1CCCC(N2CCN(c3ccccc3OC)CC2)C1 (centres unmarked) — higher, 7.25%
- Cc1ccc2[nH]c(=O)c(CN(CCO)C(=O)NCc3ccccc3)cc2c1 — higher, 7.55%
- COC(=O)c1cc(NC(=O)c2nccnc2C(=O)O)cc(C(=O)OC)c1 — higher, 13.8%
- Cc1ccc(OCCN2C(=O)OC(C)(C)C2(C)O)cc1 (centres unmarked) — higher, 6.68%
- COc1ccc(/C=C/C(=O)NC(=S)NNC(=O)c2cccnc2)cc1 — higher, 9.93%
- S=C(Nc1ccccc1)c1nc2ccccc2s1 — higher, 5.99%
- COc1cc(OC)cc(C(=O)NCCC(c2ccccc2)c2ccccc2)c1 — higher, -12.4%
- COc1ccc(NC(=S)N(CCN2CCOCC2)Cc2cc3cc4c(cc3[nH]c2=O)OCCO4)cc1 — higher, -7.45%
- COc1ccc(C)cc1NC(=O)C(C)N(c1ccc(C)cc1)S(C)(=O)=O (centres unmarked) — lower, -21.7%
- CCCCCc1nnc(NC(=O)c2ccc(=O)n(C)n2)s1 — higher, -4.54%
- COC(C(=O)Nc1cccc([N+](=O)[O-])c1)c1ccccc1 (centres unmarked) — higher, 1.56%
- Cc1ccc(S(=O)(=O)N2CCN(C(=O)COC(=O)c3c(C)noc3C)CC2)c(C)c1 — higher, -18.8%
- COc1ccccc1N1CCN(C(=O)C2CCN(C(=O)c3ccccc3Cl)CC2)CC1 — higher, 0.499%
- Cc1c(C(=O)Oc2cccc3cccnc23)oc2ccccc12 — higher, -4.01%
- CCC(=O)c1c[nH]c(C(=O)N2CCOCC2)c1 — higher, 29.6%
- CC(=O)Nc1ccc(S(=O)(=O)NC2CC(=O)N(c3cccc(F)c3)C2)cc1 (centres unmarked) — higher, -3.52%
- Cc1cccc(-n2c(O)c(C=NCCCN3CCOCC3)c(=O)[nH]c2=O)c1C — higher, 6.85%
- CCOC(=O)N1CCN(C(=O)CSc2nnc(CNC(=O)c3c(F)cccc3Cl)o2)CC1 — higher, -2.64%
- Cc1[nH]nc(-c2ccc(O)cc2O)c1-c1nc2ccccc2s1.O=C(O)C(=O)O — higher, 11.5%
